Measurements as given in patent US9763922B2 (priority 2014, dated 2017).
Read-outs that look alike come from different tables or passages of the source.

Key:
BRD4 BD1 [1] = target: T1, BRD4 BD1 (Homo sapiens (Human), UniProt O60885); assay: biochemical
BRD4 BD1 [2] = target: T1, BRD4 BD1; settings: read-out: BRD4 Alpha IC50
MYC = assay: cells; settings: Homo sapiens, MV4-11, 4 h, read-out: Myc IC50 (μM)

Row | SMILES | IC50 (BRD4 BD1 [1]) [nM] | IC50 (BRD4 BD1 [2]) [nM] | IC50 (MYC) [µM]
1 | CC(=O)N1CCc2c(c(N3CCCc4cc(-c5cncc(S(C)(=O)=O)c5)ccc43)nn2C2COC2)C1 [Example 43, 1-[3-[6-(5-methylsulfonyl-3-pyridyl)-3,4-dihydro-2H-quinolin-1-yl]-1-(oxetan-3-yl)-6,7-dihydro-4H-pyrazolo[4,3-c]pyridin-5-yl]ethanone] | > 20000 |  | 
2 | CC(=O)N1CCc2c(c(N3CCCc4cc(-c5cnn(C(F)F)c5)ccc43)nn2C2COC2)C1 [Example 37, 1-[3-[6-[1-(difluoromethyl)pyrazol-4-yl]-3,4-dihydro-2H-quinolin-1-yl]-1-(oxetan-3-yl)-6,7-dihydro-4H-pyrazolo[4,3-c]pyridin-5-yl]ethanone] | > 20000 |  | 
3 | CC(=O)N1CCc2c(c(N3CCCc4cc(-c5cn(C)nc5C#N)ccc43)nn2C2COC2)C1 [Example 34, 4-[1-[5-acetyl-1-(oxetan-3-yl)-6,7-dihydro-4H-pyrazolo[4,3-c]pyridin-3-yl]-3,4-dihydro-2H-quinolin-6-yl]-1-methyl-pyrazole-3-carbonitrile] | > 20000 |  | 
4 | CC(=O)N1CCc2c(c(Nc3ccc(-c4cn[nH]c4)cc3)nn2C)C1 [Example 185, (R)-1-[3-[5-(1,5-dimethylpyrazol-4-yl)indolin-1-yl]-1-tetrahydrofuran-3-yl-6,7-dihydro-4H-pyrazolo[4,3-c]pyridin-5-yl]ethanone] |  | 11400 | 0.86
5 | CC(=O)N1CCc2c(c(Nc3ccc(-c4ccccc4F)cc3)nn2CC2CC2)C1 [Example 94] |  | 3540 | 0.38
6 | CC(=O)N1CCc2c(c(Nc3cccc(-c4cnn(C)c4)c3)nn2C)C1 [Example 81, 1-(3-(3-(2,2-difluoroethyl)-6-(1-methyl-1H-pyrazol-4-yl)-3,4-dihydroquinolin-1(2H)-yl)-1-((S)-tetrahydrofuran-3-yl)-6,7-dihydro-1H-pyrazolo[4,3-c]pyridin-5(4H)-yl)ethanone] |  | 5290 | 0.5
7 | CC(=O)N1CCc2c(c(Nc3cc(-c4cnn(C)c4)cc(F)c3F)nn2C2CCOC2)C1 (centres unmarked) [Example 287, 1-[3-[2,3-difluoro-5-(1-methylpyrazol-4-yl)anilino]-1-tetrahydrofuran-3-yl-6,7-dihydro-4H-pyrazolo[4,3-c]pyridin-5-yl]ethanone] |  | 4560 | 0.67
8 | CC(=O)N1CCc2c(c(Nc3ccc(-c4cn(C)nc4C(F)(F)F)cc3F)nn2C2COC2)C1 [Example 301, 1-[3-[2-fluoro-4-[1-methyl-3-(trifluoromethyl)pyrazol-4-yl]anilino]-1-(oxetan-3-yl)-6,7-dihydro-4H-pyrazolo[4,3-c]pyridin-5-yl]ethanone] |  | 5330 | 0.24
9 | CC(=O)N1CCc2c(c(Nc3ccc(-c4c[nH]nc4C(F)F)cc3F)nn2C2CCOC2)C1 (centres unmarked) [Example 246, 1-[3-[7-methyl-6-(1-methylpyrazol-4-yl)-3,4-dihydro-2H-quinolin-1-yl]-1-tetrahydropyran-4-yl-6,7-dihydro-4H-pyrazolo[4,3-c]pyridin-5-yl]ethanone] |  | 4270 | 0.49
10 | CC(=O)N1CCc2c(c(Nc3ccc(-c4cnn(C)n4)cc3F)nn2C2CCOC2)C1 (centres unmarked) [Example 290, 1-[3-[2-fluoro-4-(2-methyltriazol-4-yl)anilino]-1-tetrahydrofuran-3-yl-6,7-dihydro-4H-pyrazolo[4,3-c]pyridin-5-yl]ethanone] |  | 8670 | 1.16
11 | CC(=O)N1CCc2c(c(Nc3ccc(-c4cnn(CC(C)C)c4)cc3)nn2C)C1 [Example 164, 3-(6-(difluoromethyl)-5-(1-methyl-1H-pyrazol-4-yl)indolin-1-yl)-N-methyl-1-(tetrahydro-2H-pyran-4-yl)-6,7-dihydro-1H-pyrazolo[4,3-c]pyridine-5(4H)-carboxamide] |  | 5100 | 1.07
12 | Cn1cc(-c2cc(F)c(Nc3nn([C@H]4CCOC4)c4c3CN(C(N)=O)CC4)cc2C(F)F)cn1 [Example 257, 3-[7-chloro-6-(1-methylpyrazol-4-yl)-3,4-dihydro-2H-quinolin-1-yl]-N-methyl-1-tetrahydropyran-4-yl-6,7-dihydro-4H-pyrazolo[4,3-c]pyridine-5-carboxamide] |  | > 20000 | 0.1
13 | CC(=O)N1CCc2c(c(Nc3ccc(-c4cnn(C)c4)cc3F)nn2C2CCOCC2)C1 [Example 304, 1-[3-[2-fluoro-4-(1-methylpyrazol-4-yl)anilino]-1-tetrahydropyran-4-yl-6,7-dihydro-4H-pyrazolo[4,3-c]pyridin-5-yl]ethanone] |  | 8870 | 0.19
14 | CC(=O)N1CCc2c(c(Nc3ccc(-c4cccc(C(C)O)c4)cc3)nn2C)C1 (centres unmarked) [Example 106, 1-[3-[4-methyl-6-(1-methylpyrazol-4-yl)-3,4-dihydro-2H-quinolin-1-yl]-1-tetrahydrofuran-3-yl-6,7-dihydro-4H-pyrazolo[4,3-c]pyridin-5-yl]ethanone] |  | 5040 | 1.09
15 | CC(=O)N1CCc2c(c(Nc3ccc(-c4cccc(F)c4)cc3)nn2CC2CC2)C1 [Example 95, 1-[3-[4-methyl-6-(1-methylpyrazol-4-yl)-2,3-dihydroquinoxalin-1-yl]-1-[(3S)-tetrahydrofuran-3-yl]-6,7-dihydro-4H-pyrazolo[4,3-c]pyridin-5-yl]ethanone] |  | 3570 | 1.04
16 | CC(=O)N1CCc2c(c(Nc3ccc(-c4cnn(C)c4C(F)(F)F)cc3)nn2C2CCOC2)C1 (centres unmarked) [Example 295, 1-[3-[4-[1-methyl-5-(trifluoromethyl)pyrazol-4-yl]anilino]-1-tetrahydrofuran-3-yl-6,7-dihydro-4H-pyrazolo[4,3-c]pyridin-5-yl]ethanone] |  | 1980 | 0.16
17 | CCC(=O)N1CCc2c(c(Nc3ccc(-c4cnn(C)c4)c(C(F)F)c3)nn2C2CCOC2)C1 (centres unmarked) [Example 254, N-methyl-3-[6-(1-methylpyrazol-4-yl)-7-(trifluoromethyl)-3,4-dihydro-2H-quinolin-1-yl]-1-tetrahydropyran-4-yl-6,7-dihydro-4H-pyrazolo[4,3-c]pyridine-5-carboxamide] |  | 2520 | 1.15
18 | CC(=O)N1CCc2c(c(Nc3ccc(-c4ccncc4)cc3)nn2CC2CC2)C1 [Example 93, 1-[3-[6-(1-methylpyrazol-4-yl)-3,4-dihydro-2H-quinoxalin-1-yl]-1-[(3S)-tetrahydrofuran-3-yl]-6,7-dihydro-4H-pyrazolo[4,3-c]pyridin-5-yl]ethanone] |  | 4330 | 0.36
19 | CC(=O)N1CCc2c(c(Nc3ccc(-c4cnn(C)c4)c(Cl)c3)nn2C2CCOC2)C1 (centres unmarked) [Example 294, 1-[3-[3-chloro-4-(1-methylpyrazol-4-yl)anilino]-1-tetrahydrofuran-3-yl-6,7-dihydro-4H-pyrazolo[4,3-c]pyridin-5-yl]ethanone] |  | 1200 | 0.13
20 | CC(=O)N1CCc2c(c(Nc3ccc(-c4cn(C)nc4C)cc3)nn2C)C1 [Example 111, (S, S)-1-[3-[4-methyl-6-(1-methylpyrazol-4-yl)-3,4-dihydro-2H-quinolin-1-yl]-1-tetrahydrofuran-3-yl-6,7-dihydro-4H-pyrazolo[4,3-c]pyridin-5-yl]ethanone] |  | 5590 | 0.116
21 | CC(=O)N1CCc2c(c(Nc3cc(-c4cnn(C)c4)cc(C(F)(F)F)c3)nn2C2CCOC2)C1 (centres unmarked) [Example 282, 1-[3-[3-(1-methylpyrazol-4-yl)-5-(trifluoromethyl)anilino]-1-tetrahydrofuran-3-yl-6,7-dihydro-4H-pyrazolo[4,3-c]pyridin-5-yl]ethanone] |  | 760 | 0.11
22 | CC(=O)N1CCc2c(c(Nc3ccc(-c4cnn(C)c4)c(C(F)F)c3)nn2C2CCOC2)C1 (centres unmarked) [Example 289, 1-[3-[3-(difluoromethyl)-4-(1-methylpyrazol-4-yl)anilino]-1-tetrahydrofuran-3-yl-6,7-dihydro-4H-pyrazolo[4,3-c]pyridin-5-yl]ethanone] |  | 1540 | 0.04
23 | CC(=O)N1CCc2c(c(Nc3ccc(-c4cn(C)nn4)cc3F)nn2C2CCOC2)C1 (centres unmarked) [Example 286, 1-[3-[2-fluoro-4-(1-methyltriazol-4-yl)anilino]-1-tetrahydrofuran-3-yl-6,7-dihydro-4H-pyrazolo[4,3-c]pyridin-5-yl]ethanone] |  | 8550 | 1.06
24 | CC(=O)N1CCc2c(c(Nc3ccc(-c4cnn5c4CCCC5)cc3)nn2C)C1 [Example 152, 3-[7-(difluoromethoxy)-6-(1-methylpyrazol-4-yl)-3,4-dihydro-2H-quinolin-1-yl]-1-tetrahydropyran-4-yl-6,7-dihydro-4H-pyrazolo[4,3-c]pyridine-5-carboxamide] |  | 3660 | 0.38
25 | CC(=O)N1CCc2c(c(Nc3ccc(-c4cnn(CC(F)(F)F)c4)cc3)nn2C)C1 [Example 108, 1-[3-[4-ethyl-6-(1-methylpyrazol-4-yl)-3,4-dihydro-2H-quinolin-1-yl]-1-tetrahydrofuran-3-yl-6,7-dihydro-4H-pyrazolo[4,3-c]pyridin-5-yl]ethanone] |  | 9060 | 1.09
26 | CC(=O)N1CCc2c(c(Nc3c(F)ccc(-c4cnn(C)c4)c3F)nn2[C@@H]2CCOC2)C1 [Example 281, (R)-1-[3-[2,6-difluoro-3-(1-methylpyrazol-4-yl)anilino]-1-tetrahydrofuran-3-yl-6,7-dihydro-4H-pyrazolo[4,3-c]pyridin-5-yl]ethanone] |  | 8260 | 0.33
27 | CC(=O)N1CCc2c(c(Nc3ccc(-c4c(C)nn(C)c4C)cc3)nn2C)C1 [Example 113, (S, R)-1-[3-[3-methyl-6-(1-methylpyrazol-4-yl)-3,4-dihydro-2H-quinolin-1-yl]-1-tetrahydrofuran-3-yl-6,7-dihydro-4H-pyrazolo[4,3-c]pyridin-5-yl]ethanone] |  | 10500 | 1.88
28 | CC(=O)N1CCc2c(c(Nc3ccc(-c4ccn(C)n4)cc3)nn2C)C1 [Example 170, 1-[1-(cyclopropylmethyl)-3-[6-(1-methylpyrazol-4-yl)indolin-1-yl]-6,7-dihydro-4H-pyrazolo[4,3-c]pyridin-5-yl]ethanone] |  | 8250 | 0.52
